PubChem BioAssay AID1745845 (National Center for Advancing Translational Sciences (NCATS), 2022)
The campaign covered roughly 360,000 compounds. About 2,600 (0.72%) were called active. Inconclusive results, whose numbers are uncertain, are shown with a selection of clear calls. Calls follow the shape of the dose curve; as a rule, active = well fitted inhibition curve with a large enough effect; inconclusive = small, poorly fitted or top-dose-only effect; inactive = no such curve, though single readings can be large or run the other way. Potencies beside an inconclusive call are fits to weak or partial responses and may not hold up.

experiment: Primary qHTS for Inhibitors of ATXN expression; details: HEK-293 ATXN2-luciferase reporter, luminescence, 24 h; activity change, negative = inhibition: at 57 µM (top of the series); also: nearly all actives have a fitted effect of over 55% in size
In short: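 ATXN2-luciferase reporter cells (luciferase flanked by upstream and downstream ATXN2 gene portions) were treated 24 h at 37 °C with compounds at up to 57 uM. SteadyGlo luminescence gave expression; GF-AFC fluorescence gave viability.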
% is scaled to controls: 0 for no effect and ±100 for the full control effect; potency is read from the fitted curve at half-maximal effect; tags tell the direction and shape of the fitted curve.

SMILES	activity change, negative = inhibition	Potency
CCCNC(=O)c1ccc(-c2nc(CS(=O)(=O)c3ccc(C)cc3)c(C)o2)cc1	inactive: 7.38%	–
CCS(=O)(=O)c1nc(S(=O)(=O)c2ccc(C)cc2)c(NCCCN2CCOCC2)s1	inactive: -6.83%	–
COc1cccc2sc(N(CCCN(C)C)C(=O)C(c3ccccc3)c3ccccc3)nc12	–	active: 22.4 µM
Nc1ncnc2c1ncn2[C@@H]1O[C@H](CNS(=O)(=O)c2ccc3c(c2)CCN(C(=O)C(F)(F)F)C3)[C@@H](O)[C@H]1O	inactive: -4.56%	–
C[C@]12c3[nH]c4ccccc4c3CCN1C(=O)C(CC(=O)NCC13CC4CC(CC(C4)C1)C3)C[C@@H]2C(=O)N1CCCCC1 (stereo not given in full)	–	inconclusive: 31.6 µM [inhibitor, single point]
C[C@@]12C(=O)OC(=O)[C@@]1(C)C1CCC2O1	–	inconclusive: 21.7 µM [inhibitor, partial curve]
CCC12CCC3c4ccc(O)cc4CCC3C1CC(O)C2O (stereo not given)	inactive: -12.5%	–
CC1=NN(c2nc3ccccc3[nH]2)C(=O)/C1=C/N(C)C	–	inconclusive: 2.51 µM [inhibitor, partial curve, poor fit]
Cc1cc(C)c2nc(NNC(=O)c3ccc(S(=O)(=O)N4CCCCC4)cc3)sc2c1	–	inconclusive: 37.7 µM [inhibitor, single point]
O=C1Nc2ccccc2/C1=C/C(=O)c1cccs1	–	inconclusive: 39.8 µM [inhibitor, single point]
Cc1cc(C)c(O)c(-c2cc(C(=O)Nc3ccc(S(=O)(=O)N4CCOCC4)cc3)[nH]n2)c1	–	active: 17.8 µM
CC(=O)Nc1ccc(S(=O)(=O)NCC(=O)NNC(=O)c2csc(N3CCOCC3)n2)cc1	–	inconclusive: 0.316 µM [inhibitor, partial curve, poor fit]
CCOC(=O)C1=C(C)NC(=O)NC1c1cn(-c2ccccc2)nc1-c1ccc(OC(C)C)cc1 (stereo not given)	–	inconclusive: 28.2 µM [inhibitor, single point]
O=C(Nc1nc2n(n1)C(c1ccc(Cl)cc1)C=C(c1ccccc1)N2)c1ccco1 (stereo not given)	inactive: 4.41%	–
Cc1c(C)c2ccc(OCC(=O)Nc3ccc(CN4CCOCC4)cc3)cc2oc1=O	–	inconclusive: 35.5 µM [inhibitor, partial curve, poor fit]
Cc1ccccc1C(=O)N1CCC(C(=O)Nc2ccc(C)c(S(=O)(=O)N3CCCCC3)c2)CC1	–	inconclusive: 7.94 µM [inhibitor, partial curve, poor fit]
CCc1ccc(OCC(O)CN2CCC(CN3C(=O)c4cccc5cccc(c45)C3=O)CC2)cc1 (stereo not given)	–	active: 25.1 µM
O=C1CCC/C1=c1\s/c(=C/c2cccnc2)c(=O)n1-c1ccccc1	inactive: 1.54%	–
COc1ccc(-c2c3c(=O)n(C)c(=O)n(C)c3c3n2-c2ccccc2NC3c2ccc(O)cc2O)cc1 (stereo not given)	–	inconclusive: 39.8 µM [inhibitor, single point]
O=C(CN1CCCC1)Nc1ccc(S(=O)(=O)N2CCCCC2)cc1	–	inconclusive: 2.82 µM [inhibitor, partial curve, poor fit]
COc1ccc(-c2noc(CCCC(=O)O)n2)cc1	–	active: 3.98 µM
CCC1Oc2ccc(C)cc2N(CC(=O)NCCCN2CCN(Cc3ccccc3)CC2)C1=O (stereo not given)	inactive: -11.3%	–
NS(=O)(=O)c1cc(C(=O)Nc2ccc3c(c2)CCC3)ccc1Cl	inactive: 31.3%	–
Cc1ccc(NC(=O)c2cc3ccccc3oc2=O)cc1S(=O)(=O)N(C)C	–	inconclusive: 0.752 µM [inhibitor, partial curve, poor fit]

SMILES	activity change, negative = inhibition	Potency
Cc1ccc(S(=O)(=O)CC(CN2CCCCC2)N2CCCCC2)cc1 (stereo not given)	–	inconclusive: 0.752 µM [inhibitor, partial curve, poor fit]
O=C(/C=C/c1cn(-c2ccccc2)nc1-c1cccnc1)c1ccco1	–	inconclusive: 18.9 µM [inhibitor, partial curve, poor fit]
O=C(CS(=O)c1ccc(C(F)(F)F)cc1[N+](=O)[O-])Oc1ccccc1 (stereo not given)	–	inconclusive: 39.8 µM [inhibitor, single point]
COc1ccc(CCC(=O)N2CCN(S(=O)(=O)c3cccc(Cl)c3)CC2)cc1	inactive: -2.49%	–
CC(C)NC(=S)NCc1cccs1	–	inconclusive: 0.238 µM [inhibitor, full curve, poor fit]
CCn1c(SCC(=O)N2c3ccccc3Sc3ccccc32)nnc1-c1ccco1	inactive: -15.8%	–
Oc1ccc(/C=N/N2CCN(C3c4ccccc4-c4ccccc43)CC2)cc1O	–	inconclusive: 25.1 µM [inhibitor, single point]
CCOc1ccc(CCN2C(=O)C(=O)N([C@@H](Cc3ccccc3)CN3CCC[C@H]3CN3C(=O)C(=O)NC[C@@H]3Cc3ccccc3)C[C@@H]2Cc2ccccc2)cc1	–	inconclusive: 28.2 µM [inhibitor, single point]
Cc1cc(N/N=C/c2ccccc2O)c2ccccc2n1	–	active: 15.8 µM
Cc1ccc(Cl)cc1-n1ncc2c(NCc3ccc(F)cc3)ncnc21	–	inconclusive: 39.8 µM [inhibitor, single point]
O=C1C(Cl)=C(NCCc2ccccc2)C(=O)c2ccccc21	–	active: 31.6 µM
C/C(=N\NC(=O)c1ccccc1OCCOc1ccccc1)c1ccccc1F	inactive: -12.8%	–
O=C(CSc1nc2nc(-c3cccs3)cc(C(F)(F)F)c2c(=O)[nH]1)Nc1ccc(F)c(F)c1	–	inconclusive: 26.7 µM [inhibitor, partial curve, poor fit]
Cc1ccc(CN2CCSc3ccc(C(=O)NCCCN4CCN(C)CC4)cc32)cc1	–	inconclusive: 28.2 µM [inhibitor, single point]
N/C(=N\OC(=O)c1ccccc1Cl)c1ccccn1	–	active: 15.8 µM
COc1cccc(OC)c1C(=O)OCC(=O)NC(=O)NCc1ccccc1	–	inconclusive: 37.7 µM [inhibitor, single point]
Cc1csc(SCc2nc3scc(-c4ccccc4)c3c(=O)[nH]2)n1	inactive: -25%	–
O=C(/C=C/c1ccc(S(=O)(=O)N2CCOCC2)cc1)N1CCN(c2ccc(F)cc2)CC1	–	inconclusive: 8.91 µM [inhibitor, partial curve]
CCOC(=O)c1nnn(-c2nonc2N)c1-c1ccc(OC)cc1	inactive: -1.86%	–
CCCCn1nnnc1C(CCc1ccccc1)N1CCN(C/C=C/c2ccccc2)CC1 (stereo not given)	–	inconclusive: 39.8 µM [inhibitor, single point]
Cc1ccc(O)c2ncccc12	–	active: 15.8 µM
Cc1onc(-c2c(Cl)cccc2Cl)c1C(=O)N/N=C(\N)COc1ccc(Cl)cc1	–	inconclusive: 20 µM [inhibitor, partial curve, poor fit]
CC12CCC(C(=O)N3CCC(Cc4ccccc4)CC3)(C(=O)C1=O)C2(C)C (stereo not given)	inactive: -16.6%	–
Nc1ncnc2c1ncn2[C@@H]1O[C@H](C(=O)N2CCC(F)(F)CC2)[C@@H](O)[C@H]1O	inactive: 1.89%	–

SMILES	activity change, negative = inhibition	Potency
O=C(N/N=C/c1ccccn1)c1cccc([N+](=O)[O-])c1	–	inconclusive: 5.62 µM [inhibitor, partial curve]
OCCNC1CCCc2c1[nH]c1ccc(-c3ccccc3)cc21 (stereo not given)	–	inconclusive: 34.3 µM [inhibitor, single point]
CC(=O)N1CCC2(CC1)NC(=O)N(c1ccccc1)N2	inactive: -12%	–
CCCCCCn1c(=O)n2n(c1=O)[C@@H]1CN(S(=O)(=O)c3ccc(C)cc3)C[C@]1(O)[C@@H](OC(=O)NC1CCCC1)C2	–	inconclusive: 31.6 µM [inhibitor, single point]
Cc1ccc2c(=O)oc(N(C)C)nc2c1	–	inconclusive: 0.006 µM [inhibitor, full curve, poor fit]
CCCCCCn1c(CN2CCCCC2C)nc2c1c(=O)n(C)c(=O)n2C (stereo not given)	–	inconclusive: 39.8 µM [inhibitor, partial curve, poor fit]
COc1ccc([C@H]2CC(=O)C=C(/C=C/c3ccccc3)C2)cc1OC	–	inconclusive: 39.8 µM [inhibitor, single point]
CCCCOc1ccc(Cn2c(=O)oc3ccc(C)cc32)cc1	inactive: 5.89%	–
CN(C)S(=O)(=O)c1ccc(Nc2nc(C3CC3)nc3c2nnn3Cc2ccccc2Cl)cc1	–	inconclusive: 2.82 µM [inhibitor, partial curve]
CCOCCCNC(=O)c1cc2c(-c3ccc(Cl)cc3)nn(C)c2s1	–	inconclusive: 39.8 µM [inhibitor, single point]
O=C(N/N=C/c1ccccn1)c1ccc(Br)cc1	–	inconclusive: 31.6 µM [inhibitor, single point]
C[C@H]1CN([C@@H](C)CO)C(=O)c2cc(Br)cnc2O[C@@H]1CN(C)C(=O)C1CCC1	inactive: 8.8%	–
CC(C)(C)c1ccccc1OCC(=O)Nc1ccccc1C(=O)NCc1cccnc1	inactive: -26%	–
O=C(Nc1ccc(N2CCN(c3ccc(F)cc3)CC2)c(C(=O)O)c1)c1ccccc1F	inactive: 9.54%	–
COc1ccccc1N1CCN(c2ccnc3cc(Cl)ccc23)CC1	–	active: 11.2 µM
CCOC(=O)N1CCC(N2C(=O)c3ccccc3C2Nc2cc(OC)c(OC)c(OC)c2)CC1 (stereo not given)	inactive: 3.19%	–
CCCOc1ccc(-c2nn(-c3ccccc3)cc2C2NC(=O)NC(C)=C2C(=O)OC)cc1 (stereo not given)	–	inconclusive: 39.8 µM [inhibitor, partial curve, poor fit]
CCCN(CCC)c1nc2ccccc2nc1C(C#N)C(=O)OC(C)COC (stereo not given)	inactive: -3.44%	–
CCOC(=O)C1=CCN(S(=O)(=O)c2ccc(F)cc2)C1c1ccccc1 (stereo not given)	inactive: -3.65%	–
COc1cc(OC)nc(Oc2cc(C=O)ccc2OC)n1	inactive: -1.27%	–
COC(=O)c1ccccc1NC(=O)c1ccc(COc2ccc(C)c(C)c2)o1	inactive: 5.48%	–
COc1ccc(S(=O)(=O)Nc2ccc3oc4c(c3c2)C(=O)CC(C)(C)C4)cc1	inactive: -12.3%	–
